From the antibiotic and cytotoxicity screens of Wong et al. (2023)
The other results are listed elsewhere or left out.

What was measured:
HSkMC = human skeletal muscle cells; assay: cytotoxicity call (relative viability < 0.9); conditions: 10 µM
HepG2 = assay: cytotoxicity call (relative viability < 0.9); conditions: 10 µM
S. aureus RN4220 = assay: growth inhibition call (relative growth <= 0.2); conditions: 50 µM

C[C@H](CO)N1C[C@H](C)[C@@H](CN(C)C(=O)Nc2cccc3ccccc23)Oc2c(NC(=O)C3CCCCC3)cccc2C1=O
inactive: cytotoxicity call (HSkMC) | cytotoxicity call (HepG2) | growth inhibition call (S. aureus RN4220)

C[C@H](CO)N1C[C@H](C)[C@@H](CN(C)Cc2ccc(C(F)(F)F)cc2)Oc2ccc(NC(=O)Cc3ccccc3)cc2C1=O
inactive: cytotoxicity call (HSkMC) | cytotoxicity call (HepG2) | growth inhibition call (S. aureus RN4220)

COc1ccc2c3c(n(c2c1)C)[C@H](CO)N(C[C@]13CCN(CC1)C(=O)Nc1c(noc1C)C)C(=O)Nc1ccc(cc1)F
inactive: cytotoxicity call (HSkMC) | cytotoxicity call (HepG2) | growth inhibition call (S. aureus RN4220)

Cc1ccc(Oc2nnc(-c3cccs3)c3ccccc23)cc1
inactive: cytotoxicity call (HSkMC) | cytotoxicity call (HepG2) | growth inhibition call (S. aureus RN4220)

COCC#Cc1ccc2c(c1)O[C@H](CN(C)S(=O)(=O)c1ccc(OC)cc1)[C@@H](C)CN([C@H](C)CO)S2(=O)=O
inactive: cytotoxicity call (HSkMC) | cytotoxicity call (HepG2) | growth inhibition call (S. aureus RN4220)

CC(C)C[C@@H]1NC(=O)[C@@H]2C[C@H](C(=O)NCCCC[N+](C)(C)C)[C@H](c3cccc(OCCO)c3)N2C1=O
inactive: cytotoxicity call (HSkMC) | cytotoxicity call (HepG2) | growth inhibition call (S. aureus RN4220)
